Data from patent US20140107219A1, “LOCAL ANAESTHETIC” (VITA (EUROPE) LIMITED, priority 2011, published 2014).
For part of these data: The name of at least one read-out is uncertain. Some of these results come from one statement about several compounds together.

How the values were obtained:
[1] = tested on: isolated sciatic nerve of the rat; assay: Evoked compound action potential (CAP) of the isolated rat sciatic nerve in a three-chamber bath (ex vivo): inhibition and recovery after washout; settings: for IT100 / IT0 (time to eliminate the CAP): 10 mg/mL
gastrocnemius muscle = assay: In vivo muscle CAP (mCAP, EMG integral) after intramuscular injection, gastrocnemius muscle; design: species or system rat; settings: in vivo experiments (Example 12)

CCC(=O)CC [3-pentanone, reference compound]
IT50 ([1]; […]): 230.30 ± 1.29 s | IT50 ([1]; […], listed as 3-Pentanone): 230.30 ± 1.29 s

CCCCCCC(C)=O [2-octanone, reference compound]
IT50 ([1]; […]): 81.45 ± 1.58 s | IT50 ([1]; […], listed as 2-Octanone): 81.45 ± 1.58 s

CCCCC(=O)CC [3-heptanone]
IT50 ([1]; […]): 40.82 ± 11.67 s | IT50 ([1]; […], listed as 3-Heptanone): 40.82 ± 1.67 s

CCCCCC(C)=O [2-heptanone]
IT50 ([1]; 1.41 mg/mL): 109.7 ± 2.87 s | IT50 ([1]; 1.41 mg/mL, listed as 2-Heptanone): 109.7 ± 2.87 s | IT50 ([1]; 2.28 mg/mL (20 mM)): 108.9 ± 0.22 s | IT50 ([1]; 2.28 mg/mL (20 mM), listed as 2-Heptanone): 108.9 ± 0.22 s | IT100 / IT0 (time to eliminate the CAP) [1]: 195 ± 12 s | IT50 ([1]; […], listed as 2-Heptanone): 39.14 ± 4.84 s | duration of local anaesthesia maintained after intramuscular injection (gastrocnemius muscle): over 2 h

CCN(CC)CC(=O)Nc1c(C)cccc1C [lidocaine, 2-(diethylamino)-N-(2,6-dimethylphenyl)-acetamide, reference compound]
IT50 ([1]; 1.41 mg/mL): 32.23 ± 3.16 s | IT50 ([1]; 1.41 mg/mL, listed as Lidocaine): 32.23 ± 3.16 s | IT100 / IT0 (time to eliminate the CAP) [1]: 101.3 ± 2.16 s | IT50 ([1]; […]): 27.11 ± 3.16 s | IT50 ([1]; […], listed as Lidocaine): 27.11 ± 3.16 s | duration of local anaesthesia maintained after intramuscular injection (gastrocnemius muscle): over 2 h

CCCC(C)=O [2-pentanone, reference compound]
IT50 ([1]; […]): 390.60 ± 0.10 s | IT50 ([1]; […], listed as 2-Pentanone): 390.60 ± 0.10 s

CCCC(=O)CCC [4-heptanone]
IT50 ([1]; […]): 45.24 ± 0.44 s | IT50 ([1]; […], listed as 4-Heptanone): 45.24 ± 0.44 s

CCCCCC(=O)CC [3-octanone, reference compound]
IT50 ([1]; […]): 117.10 ± 0.53 s
